{"source": "PubChem BioAssay AID624296", "about": "(National Center for Advancing Translational Sciences (NCATS), 2012)", "note": "The whole screen tested about 350,000 compounds, of which about 9,900 (2.8%) were called active. This list was built around the results that the source calls inconclusive (neither active nor inactive); the mix of calls is not that of the screen. Calls come from the whole dose curve; as a rule, active = well fitted activation curve with a large enough effect; inconclusive = small, poorly fitted or top-dose-only effect; inactive = no such curve, though single readings can be large or run the other way. No potency is given beside an inconclusive call; the fits are too rough. Potency is the fitted concentration of half-maximal effect; tags give direction and shape of the fitted curve."}
{"assay": "A quantitative high throughput screen for small molecules that induce DNA re-replication in MCF 10a normal breast cells; note: nearly all actives have a fitted effect of over 50% in size; for activity, positive = re-replication: % of control where 0% means no effect.", "settings": "MCF 10A DNA re-replication, Hoechst nuclear intensity, 48 h; activity, positive = re-replication: at 46.1 µM (top of the series)"}
{"smiles": "CSc1nc2ccc(Nc3nc(N4CCOCC4)nc(N4CCOCC4)n3)cc2s1", "Potency": "inconclusive [activator, single point]"}
{"smiles": "Cc1ccc2[nH]c(C(=O)NN=C3CCCCC3)c(-c3ccccc3)c2c1", "Potency": "active: 16.4 µM"}
{"smiles": "C/C(=N\\NC(=S)Nc1cccc(C)c1)c1cc2ccccc2o1", "Potency": "active: 14.1 µM"}
{"smiles": "CC(C)C[C@]1(c2ccccc2)ON(c2ccccc2C(F)(F)F)C1=O", "Potency": "inconclusive [activator, single point]"}
{"smiles": "O=C(Cc1ccc(Cl)cc1)Nc1ccc(C(=O)N2CCOCC2)cc1", "Potency": "inconclusive [activator, partial curve, poor fit]"}
{"smiles": "Cc1ccc(OCc2nc(C#N)c(NCc3ccc4c(c3)OCO4)o2)cc1", "Potency": "inconclusive [activator, single point]"}
{"smiles": "S=C(NCc1ccc(Cl)c(Cl)c1)Nc1ccc2c(c1)OCO2", "Potency": "inconclusive [activator, single point]"}
{"smiles": "O=C(CCCc1c[nH]c2ccccc12)NCc1ccc2c(c1)OCO2", "Potency": "inconclusive [activator, single point]"}
{"smiles": "CCOC(=O)C1(Cc2cccc(OC)c2)CCN(Cc2cc(OC)ccc2OC)CC1", "Potency": "inconclusive [activator, single point]"}
{"smiles": "CC1Cc2ccccc2N1C(=O)CSc1nc2c(c(=O)n(C)c(=O)n2C)n1Cc1ccc(F)cc1", "note": "(configuration not stated)", "activity, positive = re-replication": "inactive: 0.11%"}
{"smiles": "Cc1onc(-c2ccccc2)c1C(=O)Nc1nc(-c2ccc(F)c(F)c2)cs1", "Potency": "inconclusive [activator, single point]"}
{"smiles": "O=S(=O)(CCS(=O)(=O)c1ccccc1)c1ccccc1", "Potency": "inconclusive [activator, single point]"}
{"smiles": "CCN(CC(=O)NCc1ccc(F)cc1)c1ccc(S(C)(=O)=O)cc1[N+](=O)[O-]", "activity, positive = re-replication": "inactive: 7.75%"}
{"smiles": "Cc1nonc1N1CCN(Cc2cn[nH]c2-c2ccc(F)cc2F)CC1", "Potency": "inconclusive [activator, single point]"}
{"smiles": "N#Cc1ccc(-c2ccc(OCC(O)Cn3nnc4ccccc43)cc2)cc1", "note": "(configuration not stated)", "Potency": "inconclusive [activator, single point]"}
{"smiles": "COC(=O)C1=C(C)NC2=C(C(=O)CCC2)C1c1cn(Cc2ccc(Cl)cc2Cl)nc1-c1ccccc1", "note": "(configuration not stated)", "Potency": "inconclusive [activator, single point]"}
{"smiles": "CCOC(=O)/C=c1\\s/c(=C\\c2ccc3c(c2)OCCO3)c(=O)n1CC(=O)NCC1CCCO1", "note": "(configuration not stated)", "Potency": "inconclusive [activator, single point]"}
{"smiles": "Cc1ccc(-c2ocnc2C(=O)Nc2nc(C)cs2)cc1", "Potency": "inconclusive [activator, partial curve, poor fit]"}
{"smiles": "CC(C)CC(C)NNC(=O)c1cc2ccccc2[nH]1", "note": "(configuration not stated)", "activity, positive = re-replication": "inactive: 1.27%"}
{"smiles": "CC#CCN1c2ccccc2[C@]23C[C@@H](C(=O)OC)N(C(=O)c4ccc(Br)cc4)C2=NC(C(=O)OC)=C(C(=O)OC)[C@H]13", "Potency": "inconclusive [activator, single point]"}
{"smiles": "O=C(CN1C(=O)C2C3C=CC(C3)C2C1=O)NCCc1ccccc1", "note": "(configuration not stated)", "Potency": "inconclusive [activator, single point]"}
{"smiles": "COc1ccc(/C=N/NC(=O)Cn2cnc3ccccc3c2=O)cc1", "Potency": "inconclusive [activator, single point]"}
{"smiles": "CCOc1cc(S(=O)(=O)NCC2CCCO2)ccc1F", "note": "(configuration not stated)", "activity, positive = re-replication": "inactive: -5.6%"}
{"smiles": "COc1c(OC(C)=O)ccc(/C=C/c2ccc3cccc(OC)c3n2)c1[N+](=O)[O-]", "Potency": "inconclusive [activator, single point]"}
{"smiles": "O=C(CCN1C(=O)/C(=C/c2ccc(F)cc2)SC1=S)NC1C=CS(=O)(=O)C1", "note": "(configuration not stated)", "Potency": "inconclusive [activator, single point]"}
{"smiles": "CCC[n+]1c(C)sc2c3c(ccc21)CCCC3", "Potency": "inconclusive [activator, single point]"}
{"smiles": "Cc1cccc(N2C(=O)CS/C2=N\\NC(=O)c2ccc(Br)cc2)c1C", "activity, positive = re-replication": "inactive: 4.1%"}
{"smiles": "CCc1cc2c(cc3c(=O)n(CC(=O)N4CCN(C)CC4)ncn32)s1", "Potency": "inconclusive [activator, partial curve, poor fit]"}
{"smiles": "CN(C)c1ccc(CN(Cc2ccco2)C(=O)c2ccco2)cc1", "Potency": "inconclusive [activator, single point]"}
{"smiles": "O=C(O)c1ccc(Cl)c(S(=O)(=O)N(Cc2ccccc2)c2ccccc2Cl)c1", "Potency": "active: 8.2 µM"}
{"smiles": "COc1ccccc1Nc1nc(N)nc(CN2CCN(c3ccccc3F)CC2)n1", "Potency": "inconclusive [activator, partial curve, poor fit]"}
{"smiles": "Cn1c(CCNC(=O)c2ccco2)nc2cc([N+](=O)[O-])ccc21", "activity, positive = re-replication": "inactive: -27.5%"}
{"smiles": "O=C1/C(=C/c2ccc(Cl)cc2)SC(=S)N1CCC(=O)N1CCCCC1CCO", "note": "(configuration not stated)", "Potency": "inconclusive [activator, single point]"}
{"smiles": "COc1ccc(C(=O)CCC(=O)N2CCN(c3ccc(C)cc3)C(C)C2)cc1", "note": "(configuration not stated)", "activity, positive = re-replication": "inactive: 24.9%"}
{"smiles": "O=S(=O)(O)c1cccnc1SCc1ccccc1", "activity, positive = re-replication": "inactive: 6.64%"}
{"smiles": "Cc1cc(NS(=O)(=O)c2c(C)[nH]c(=O)[nH]c2=O)ccc1Br", "activity, positive = re-replication": "inactive: 0.961%"}
{"smiles": "O=C(O)CCN1C(=O)CC(N2C(=O)/C(=C/c3ccc(Cl)cc3)SC2=S)C1=O", "note": "(configuration not stated)", "Potency": "inconclusive [activator, partial curve, poor fit]"}
{"smiles": "CCOc1ccc2oc(-c3ccccc3)c(C(N)=O)c2c1", "activity, positive = re-replication": "inactive: 7.86%"}
{"smiles": "COc1ccc2cc(/C=N/NC(=O)CN(c3ccccc3C)S(=O)(=O)c3ccccc3)c(Cl)nc2c1", "Potency": "inconclusive [activator, full curve]"}
{"smiles": "CCOc1cc(-c2c(C)c(C)nc(N)c2C#N)ccc1O", "activity, positive = re-replication": "inactive: 14.7%"}
{"smiles": "Cn1cccc1-c1cc(C(=O)N/N=C/c2cc(Br)ccc2O)[nH]n1", "Potency": "inconclusive [activator, single point]"}
{"smiles": "COc1cc(C(=O)NCC(=O)N2CCN(S(=O)(=O)c3cc(C)ccc3C)CC2)cc(OC)c1OC", "Potency": "inconclusive [activator, partial curve, poor fit]"}
{"smiles": "CSCCC(NS(=O)(=O)c1ccc2c(c1)OCCO2)C(=O)N(C)Cc1ccc(C)cc1", "note": "(configuration not stated)", "Potency": "inconclusive [activator, single point]"}
{"smiles": "COc1ccc(C)cc1S(=O)(=O)N(C)CC(=O)NC1CC1", "activity, positive = re-replication": "inactive: -1.53%"}
{"smiles": "COc1ccc(/C=C2/C(=O)OCc3cc(OC)c(OC)cc32)cc1", "Potency": "inconclusive [activator, partial curve, poor fit]"}
{"smiles": "Cc1cccc(OCCOc2ccccc2C=C(C#N)C#N)c1", "Potency": "inconclusive [activator, single point]"}
{"smiles": "Cc1ccccc1C(=O)NNC(=O)CSc1nnc(C)n1-c1ccccc1", "Potency": "inconclusive [activator, full curve, poor fit]"}
{"smiles": "CCOC(=O)c1ccc(N2C(=O)C3C(/C=C/c4ccccc4)OC4(C(=O)c5ccccc5C4=O)C3C2=O)cc1", "note": "(configuration not stated)", "Potency": "active: 25.9 µM"}
{"smiles": "CCCCCCn1c(CN2CCN(Cc3ccccc3)CC2)nc2c1c(=O)n(C)c(=O)n2C", "Potency": "inconclusive [activator, single point]"}
{"smiles": "CCN1CCN(c2oc(/C=C/c3ccccc3)nc2C#N)CC1", "Potency": "active: 23.1 µM"}
{"smiles": "COc1cc(C(C)=O)ccc1OCC(O)Cn1nc(C)c(Br)c1C", "note": "(configuration not stated)", "activity, positive = re-replication": "inactive: 11.5%"}
{"smiles": "COc1ccc(-c2oc3ncnc(NCCN4CCOCC4)c3c2-c2ccc(OC)cc2)cc1", "Potency": "inconclusive [activator, full curve, poor fit]"}
{"smiles": "C[C@H]1CN(S(=O)(=O)c2ccc3c(c2)OCCO3)CCN1S(=O)(=O)c1c(F)cccc1F", "activity, positive = re-replication": "inactive: -1.04%"}
{"smiles": "Nc1cccc2c1C(=O)N(Cc1cccc(Cl)c1)C2=O", "Potency": "active: 16.4 µM"}
{"smiles": "CCC1CN(C(=O)N2CCC(C(=O)NCc3ccco3)CC2)c2cc(C)ccc2O1", "note": "(configuration not stated)", "activity, positive = re-replication": "inactive: 0.212%"}
{"smiles": "C[C@]12c3[nH]c4cc(-c5ccco5)ccc4c3CCN1C(=O)[C@@H](CC(=O)NCCc1ccccn1)C[C@@H]2C(=O)N1CCCCC1", "Potency": "inconclusive [activator, partial curve, poor fit]"}
{"smiles": "O=C(CN(Cc1ccc(F)cc1)C(=O)c1ccco1)NCc1ccc(F)cc1", "activity, positive = re-replication": "inactive: 3.3%"}
{"smiles": "COC(=O)c1cc(S(=O)(=O)N2CCN(c3cc(C)ccc3C)CC2)c[nH]1", "Potency": "inconclusive [activator, partial curve, poor fit]"}
{"smiles": "O=C(O)[C@@H]1CCCN1S(=O)(=O)c1cccc2cccnc12", "activity, positive = re-replication": "inactive: -7.74%"}
{"smiles": "Cc1ccc(CSCCNS(=O)(=O)c2ccccc2)cc1", "Potency": "inconclusive [activator, partial curve, poor fit]"}
{"smiles": "CCC(=O)Nc1ccc(Cl)c(NC(=S)NC(=O)COc2ccc(Cl)cc2)c1", "Potency": "inconclusive [activator, partial curve, poor fit]"}
{"smiles": "CCN1CCc2c(sc(NC(=O)c3ccc(S(=O)(=O)N4CCCC4)cc3)c2C(=O)NC)C1", "Potency": "active: 18.4 µM"}
{"smiles": "COc1cc(/C=N/NC(=O)Cc2ccccc2)ccc1Oc1ccc([N+](=O)[O-])cc1[N+](=O)[O-]", "Potency": "inconclusive [activator, full curve, poor fit]"}
{"smiles": "COc1cc(NC(=O)C/C(C)=N/NC(=O)c2cccs2)c(OC)cc1Cl", "Potency": "inconclusive [activator, single point]"}
{"smiles": "O=C(NCc1cccc(Cl)c1)c1ccc2c(c1)OCCO2", "Potency": "inconclusive [activator, single point]"}
{"smiles": "CC(=O)N1c2ccc(S(=O)(=O)NCC3CCC(C(=O)NCc4ccc(C)cc4)CC3)cc2CC1C", "note": "(configuration not stated)", "activity, positive = re-replication": "inactive: -5.28%"}
{"smiles": "C[C@H]1CN([C@@H](C)CO)C(=O)c2cccc(NS(=O)(=O)c3ccc(Cl)cc3)c2O[C@@H]1CN(C)CC1CCCCC1", "activity, positive = re-replication": "inactive: -1.78%"}
